PubChem BioAssay (NCI)
Where “and” joins values, the source holds several entries; their conditions need not be identical. Identical values can stand only once.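 Following 48 hours of exposure in 96-well plates, responses at five concentrations were used to interpolate endpoints linearly. Abbreviation: GI50, concentration required for 50% inhibition of growth. TGI: total growth inhibition.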

System: NCI-H322M lung
Experiment: DTP human tumour cell line panel, 48 h

Compound	TGI	GI50 [µM]
NC(N)=N/N=C/c1c(-c2cc([N+](=O)[O-])c(Cl)cc2Cl)nc2n1CCS2	37.5 µM	
CCN(CC)c1ccc(/C=N/NC(=O)CSc2nc3ccccc3c(=O)n2Cc2ccc(S(N)(=O)=O)cc2)c(O)c1	> 100 µM	0.575
Cc1ccc(C(=O)N/N=C2/C(=O)c3c4ccccc4cc4cccc2c34)cc1	> 100 µM	
C=C(C)C(=O)OC1C[C@H](COC(C)=O)C2CC=C(CO)C2C2OC(=O)C(=C)[C@H]12 (some centres not stated)	> 100 µM	
O=C(CN(/C=C/C(=O)C(F)(F)F)c1ccccc1)c1ccc(Cl)cc1	58.5 µM	17.9
NCCOc1ncccc1/C=C1\c2ccccc2-c2ccc([N+](=O)[O-])cc21	1.12 µM	0.283
Cc1cn2c(/C=N/N=C(N)N)c(-c3ccncc3)nc2s1	35.7 µM	20.5
CC12CCC(CC1(Cl)Cl)C2 (configuration not stated)	> 100 µM	
CC(C)C(=S)N(C)O	> 100 µM	
COC[C@H]1C(=O)NCC(=O)N2N=CCC[C@H]2C(=O)N(O)[C@H](C)C(=O)O[C@@H](C(C)C)[C@H](NC(=O)[C@@](C)(O)[C@]2(O)CC[C@@H](CC(C)C)[C@H](C)O2)C(=O)N2NCCC[C@@H]2C(=O)N1O	0.0422 µM	
C[C@H](NC(=O)c1c(C(F)F)nn(C)c1Oc1cccc(C(F)(F)F)c1)c1ccc(C(=O)O)cc1	> 100 µM	> 100
C=CCn1c(-c2ccc(Cl)cc2)csc1=Nc1ccccc1OC	> 100 µM	
COc1cc2nc(-c3cccc4cccnc34)nc(NC3CCN(Cc4ccccc4)CC3)c2cc1OC	2.29 µM	1.06
CC(=O)OC1C(O[C@H]2CC[C@]34O[C@]35CC[C@]3(C)C(C6(C)CC[C@@H](C(C)(C)O)O6)[C@@H](O)CC3(C)[C@@H]5CC(OC3OC(CO)C(O)C(O)C3O)C4C2(C)C)OCC(O)C1O (some centres not stated)	> 100 µM	
CCOC(=O)c1nc2cc(C(F)(F)F)ccc2nc1Oc1ccc(F)cc1	> 100 µM	
C/C(CC(=O)Nc1ccc(NC(=O)C/C(C)=N\NC(N)=O)cc1)=N/NC(N)=O	> 100 µM	
Nc1ccccc1C(=O)NC(=O)Nc1ccc(Oc2ncc(Br)cn2)c(Cl)c1	48.5 µM	
COc1ccc(/C(Cl)=C(\C=O)c2ccc(Cl)cc2)cc1OC	> 100 µM	
O=c1[nH]c(=O)n(C2CC(O)C(CO)O2)cc1COCC(F)(F)F (configuration not stated)	> 100 µM	
C/C(=N\NC(N)=S)c1sc(-n2nc(-c3ccccc3)cc2-c2ccccc2)nc1C	> 100 µM	
CCOC(=O)/C=C(/C(=O)OCC)n1ccc(=O)n(Cc2cnnn2CCCCOC(C)=O)c1=O	> 100 µM	
COc1cc(CN(c2ccc(C)cc2)C2OC(=O)c3ccccc32)cc(OC)c1OC (configuration not stated)	> 100 µM	
CN1CCN(CCCOc2cccc3nc(Nc4ccc(F)c(F)c4)ccc23)CC1	8.48 µM	3.93
O=C(/C(=N/Nc1ccccc1)c1ccc([N+](=O)[O-])cc1)c1ccc([N+](=O)[O-])cc1	> 100 µM	
CCN(CC)c1ccc(N=Nc2ccc(-c3nc4cccn(C)c-4n3)cc2)cc1	44.8 µM	

Compound	TGI	GI50 [µM]
COc1ccc2nc3cccc([N+](=O)[O-])c3c(NCCNCCN(C)C)c2c1	2.18 µM	0.23
CN(C)N=Nc1ccc2[nH]c(=O)[nH]c2c1	> 100 µM	
O=C(N/C(=C/c1cccc([N+](=O)[O-])c1)c1nc2ccc(Cl)cc2[nH]1)c1ccccc1	> 100 µM	
CN(C)c1ccc(/C=C(\NC(=O)c2ccccc2)C(=O)NC(Cc2c[nH]c3ccccc23)C(=O)O)cc1 (configuration not stated)	> 100 µM	
O=C(NCc1ccc2ccc3cccnc3c2n1)c1ccc[n+](Cc2ccccc2)c1	> 100 µM	
COC(=O)CCC(=O)N1CC1C (configuration not stated)	> 100 µM	
O=c1c2c3c(sc2nc2n1N=CN(c1ccc(F)cc1)C2)CCCC3	> 100 µM	
CC(=O)O[C@H](C[C@H](C(C)C)N(C)C(=O)[C@@H](NC(=O)[C@H]1CCCCN1C)C(C)C)c1cccc(C(=O)N[C@@H](Cc2ccccc2)C[C@H](C)C(=O)O)n1	> 25 µM	0.0475
O=C1Nc2ccccc2/C1=C/c1cn(CC(O)Cn2cc(/C=C3\C(=O)Nc4ccccc43)c3ccccc32)c2ccccc12 (configuration not stated)	5.61 µM	1.83
C=C(CN1c2ccccc2Sc2ccccc21)c1ccc(C(=O)Nc2ccccc2N)cc1	> 100 µM	> 82.1
C#C[C@]1(O)CC[C@H]2[C@@H]3CCC4=C/C(=N/OC(=O)c5cccc6c(=O)c7ccccc7[nH]c56)CCC4[C@H]3CC[C@@]21CC (some centres not stated)	> 100 µM	
COc1ccc2c3c1OC1C(OC)(OC)CC4(C=C2)CN(C)CCC314 (configuration not stated)	> 100 µM	
CC1(C)OC2OC(COC(=O)c3ccc(C#N)cc3)C3OC(C)(C)OC3C2O1 (configuration not stated)	> 75 µM	
N#C/C(=C\c1ccccc1)C(NO)Nc1ccccc1 (configuration not stated)	> 100 µM	
O=c1c2cccnc2ncn1CCCN1CCCC1	> 100 µM	
Cc1cc(NS(=O)(=O)c2ccc(Nc3c4ccccc4nc4c(C(=O)NCCO)cccc34)cc2)no1	69 µM	
CC1=C(C#N)C(/C=C(\Cl)c2ccc(F)cc2)C(C#N)=C(C)N1	> 100 µM	> 100
C1=NCCOCCN=Cc2ccc(cc2)OCc2cccc(n2)COc2ccc1cc2	> 100 µM	
CC12OC(C(=O)C13CCC3)C1C(=O)c3ccc4c(ccc5ccccc54)c3C(=O)C12 (configuration not stated)	41.6 µM	16.5
CCc1nn2ncccc2c1-c1ccnc(NC2CC2)n1	> 25 µM	> 25
Cc1cccc(Nc2cc(Cl)nc(SCC(=O)O)n2)c1C	> 100 µM	
O=[N+]([O-])C(C(Cl)=C(Cl)Cl)=C(n1cncn1)n1cncn1	> 100 µM	
NS(=O)(=O)c1nnc(NS(=O)(=O)c2ccc([N+](=O)[O-])cc2)s1	> 100 µM	
Cc1cn(C2OC(CO)C(O)C2F)c(=O)[nH]c1=O (configuration not stated)	> 100 µM	
CCOC(=O)C#Cc1c(C(=O)OCC)nnn1[C@@H]1O[C@H](CO)[C@H]2OC3(CCCCC3)O[C@H]21	30.7 µM	16.4

Compound	TGI	GI50 [µM]
C[n+]1cn(-c2nc3ccccc3nc2[N-]S(=O)(=O)c2ccccc2)c2ccccc21	> 100 µM	
Cc1ccc(S(=O)(=O)NC(=O)NC(CCC(N)=O)C(=O)O)cc1 (configuration not stated)	> 100 µM	
Oc1c(O)c(Cl)c(Cl)c(Cl)c1Cl	24.8 µM	3.52
Cc1cc2c(cc1CO)N1Cc3cc(C)c(CO)cc3N(C2)C1	> 100 µM	
C1CC2=C(C1)C1=S(S2)SC2=C1CCC2	> 100 µM	
CN(C)CCCCCNc1c2ccccc2nc2cccc([N+](=O)[O-])c12	0.0142 µM	
NCCNC(=O)CN(CC(=O)O)C1CCCCC1N(CC(=O)O)CC(=O)O (configuration not stated)	> 100 µM	
COc1ccc2oc(C(=O)N3CC(CCl)c4ccc(N)cc43)cc2c1 (configuration not stated)	29.3 µM	
O=C1NC(=Nc2ccccc2)C(=Nc2ccccc2)N1c1ccccc1	35.4 µM	
COc1cccc(NC(=O)c2sc3nc4c(cc3c2N)C(O)CCC4)c1 (configuration not stated)	> 100 µM	0.797
COC(=O)CC(=O)NCC1=CCC(=O)CC1	> 100 µM	
CC(C)=C1CCC(CN2CCOCC2)C1=O (configuration not stated)	51.9 µM	
Cn1cncc1-c1c(F)cncc1NC(=O)c1c(N)nn2cc(F)cnc12	52 µM	0.277
O=C(Oc1ccccc1)C(Br)C(Br)c1ccccc1 (configuration not stated)	27.5 µM	14.2
c1cc[c]([Sn]([O]c2cccc3cccnc23)([O]c2cccc3cccnc23)[c]2ccccc2)cc1	2.94 µM	1.58
Cc1cc2nnc(C(N)=O)c(N)c2cc1C	> 100 µM	
C=CCN(CCN(CC=C)S(=O)(=O)c1ccc(C)cc1)S(=O)(=O)c1ccc(C)cc1	> 100 µM	
COc1ccc(-c2nn3ncccc3c2-c2ccnc(Nc3ccc4c(c3)OCCO4)n2)cc1	> 25 µM	9.4
O=C(/C=C\n1cnc(-c2cc(C(F)(F)F)cc(C(F)(F)F)c2)n1)N1CC(F)(F)C1	8 µM	0.565
N#Cc1c(-c2ccc([N+](=O)[O-])cc2)cc(-c2ccc(Nc3ccnc4cc(Cl)ccc34)cc2)nc1N	52.8 µM	
COc1cc(Nc2ncnc(Nc3ccc4c(n3)NC(=O)C(C)(C)O4)n2)cc(OC)c1OC	> 100 µM	2.42
O=C(NC1(C(=O)O)CCCC1)c1ccccc1	> 100 µM	
COC(=O)CC(C(C(C)=O)C(=O)OCc1ccccc1)N1C(=O)OC(c2ccccc2)C1c1ccccc1 (configuration not stated)	> 100 µM	
CCC[CH2][Sn]([CH2]CCC)([O]C(=O)c1cccc(F)c1F)[O]C(=O)c1cccc(F)c1F	3.14 µM	1.71
C=CCCC(=O)C(=[N+]=[N-])C(=O)CCC(=O)c1ccccc1	> 10 µM	

Compound	TGI	GI50 [µM]
C=C(CO)CC(/C=C(\C)CC/C=C(\C)CCl)OC(C)=O (configuration not stated)	> 100 µM	
Nc1nc2c(ccc3ccccc32)s1	> 100 µM	> 100
Nc1c2cc3ccc2nc2ccc(cc12)OCCOCCOCCOCCOCCOCCO3	> 10 µM	
COc1cccc2cc(C(=O)NC34CC5CC(CC(C5)C3)C4)c(=N)oc12	> 100 µM	
S=C(CSc1ccccc1)Nc1cccc2ccccc12	> 100 µM	
Cc1noc(C)c1-c1cnc2c(-c3ccc(C(=O)O)cc3)cn([C@@H](C)c3ccccn3)c2c1	> 100 µM	1.41
COc1ccc2c(c1)O/C(=C\c1cccc(OCC(=O)Nc3nc(C)c(C)s3)c1)C2=O	> 100 µM	> 100
CNCCCNc1c2ccccc2nc2cccc([N+](=O)[O-])c12	0.0232 µM and 0.0285 µM	
CN1NC(c2ccccc2)=C(C#N)C(=O)CC1c1ccc(Br)cc1 (configuration not stated)	> 100 µM	
COc1cc(OC)c(C2(c3c(OC(C)C)c(=O)c3=O)SCCCS2)cc1OC	> 100 µM	
CCNC(=S)NNC(=O)CSc1nc2ccc(I)cc2c(=O)n1Cc1ccccc1	> 100 µM	
Cc1cc(N(CCC#N)CCC#N)ccc1/C(N=Nc1ccc([N+](=O)[O-])cc1)=N\NC(=O)c1ccccc1	> 100 µM	
COc1cccc2nc3c(C(=O)NCCN(C)C)cccc3nc12	36.7 µM	
CCOc1cc(-c2nc3cc(F)ccc3s2)ccc1O	29.8 µM	
O=C(Nc1ccc2c(c1)OCCO2)C(=O)c1c[nH]c2ccccc12	> 100 µM	11.6
COc1ccc2[nH]c(C(=O)OCc3ccc4cccc(O)c4n3)cc2c1	4 µM	1.78
CCOC(=O)C1=C(C(=O)OCC)C2(c3ccccc3)N(O1)c1ccccc1C2(C)C (configuration not stated)	> 100 µM	
O=C(O)c1ccc(Nc2nc3nn(Cc4ccccc4)cc3c(=O)s2)cc1	> 100 µM	
CCC[CH2][Sn]([CH2]CCC)([CH2]CCC)[O]C(=O)C(OC)c1ccccc1 (configuration not stated)	0.346 µM	0.152
O=C1NC(=Nc2ccccc2Cl)N/C1=C\c1ccc(Cl)cc1Cl	> 100 µM	
Cc1ccc(C2C(Cl)C(=O)N2NC(=O)c2ccc(N)cc2)cc1 (configuration not stated)	42 µM	
Cc1ccc(/S(Cc2ccccc2)=N\S(=O)(=O)c2ccc(C)cc2)cc1 (configuration not stated)	> 100 µM	
